{"source": "PubChem BioAssay AID485367", "about": "(National Center for Advancing Translational Sciences (NCATS), 2010)", "note": "Hit rate of the full screen: of about 330,000 compounds, about 560 (0.17%) were called active. Inconclusive results, whose numbers are uncertain, are shown with a selection of clear calls. Calls follow the shape of the dose curve; as a rule, active = well fitted inhibition curve with a large enough effect; inconclusive = small, poorly fitted or top-dose-only effect, or effect the other way; inactive = flat fitted curve, though single readings scatter. Potencies of inconclusive entries are left out as doubtful fits. Potency is read from the fitted curve at half-maximal effect; tags tell the direction and shape of the fitted curve."}
{"molecular_target": "ATP-dependent 6-phosphofructokinase (Trypanosoma brucei brucei) (UniProt O15648)", "sequence (O15648 whole entry, looked up)": "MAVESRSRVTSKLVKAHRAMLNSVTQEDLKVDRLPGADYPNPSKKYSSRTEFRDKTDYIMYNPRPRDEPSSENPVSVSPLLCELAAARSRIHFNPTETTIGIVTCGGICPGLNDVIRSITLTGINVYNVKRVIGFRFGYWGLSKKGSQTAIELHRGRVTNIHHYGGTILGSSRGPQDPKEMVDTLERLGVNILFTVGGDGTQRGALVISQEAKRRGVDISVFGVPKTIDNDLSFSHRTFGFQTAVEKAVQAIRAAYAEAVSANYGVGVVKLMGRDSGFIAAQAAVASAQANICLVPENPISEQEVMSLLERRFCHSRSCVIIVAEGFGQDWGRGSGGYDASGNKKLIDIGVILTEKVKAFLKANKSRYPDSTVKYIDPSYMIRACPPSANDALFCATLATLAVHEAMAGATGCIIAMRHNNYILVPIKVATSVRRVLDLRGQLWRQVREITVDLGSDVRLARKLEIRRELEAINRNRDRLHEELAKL", "test": "qHTS Assay to Find Inhibitors of T. brucei phosphofructokinase; also: nearly all actives have a fitted effect of over 60% in size;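 as to activity, negative = inhibition: 0% = uninhibited 1x PFK enzyme wells and -100% = no-enzyme wells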", "settings": "T. brucei PFK, ADP-Glo luminescence; activity, negative = inhibition: at 57.5 µM (top of the series)", "procedure,_shortened": "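Luminescent ADP detection (ADP-Glo, two-step: ATP depletion then ADP-to-ATP conversion for luciferase) reported PFK activity after 45 min room-temperature reaction of 1.25 nM enzyme with 0.5 mM F6P and 0.1 mM ATP at pH 8.0.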"}
{"compound": "COc1ccc(NS(=O)(=O)c2ccc(N/N=C(\\C)c3ccncc3)c([N+](=O)[O-])c2)cc1", "Potency": "inconclusive [falling, single point]"}
{"compound": "COC(=O)/C(=C(/F)Sc1cc(C)c(O)c(C)c1)C(F)(F)F", "activity, negative = inhibition": "inactive: -3.08%"}
{"compound": "CCN(CC)CC(=O)c1ccc(-c2ccccc2)cc1", "Potency": "inconclusive [falling, single point]"}
{"compound": "COc1ccc(N2CCN(c3cnc4ccccc4n3)CC2)cc1", "activity, negative = inhibition": "inactive: -0.548%"}
{"compound": "O=C(CN1CCN(Cc2ccccc2)CC1)Nc1ccc([N+](=O)[O-])cc1C(=O)Nc1ccccc1F", "activity, negative = inhibition": "inactive: -0.291%"}
{"compound": "CCOC(=O)c1cnc(SSc2ncc(C(=O)OCC)c(N)n2)nc1N", "Potency": "inconclusive [falling, single point]"}
{"compound": "CCOc1ccccc1NC(=O)C(NCC1(N2CCCCC2)CCCCC1)c1ccccc1", "note": "(stereo unspecified)", "activity, negative = inhibition": "inactive: 0.582%"}
{"compound": "COc1cccc(-c2nnc(NC(=O)C3CCCCC3)o2)c1", "activity, negative = inhibition": "inactive: -0.253%"}
{"compound": "CC(C)(C)C(=O)COc1ccccc1[N+](=O)[O-]", "Potency": "inconclusive [activator, single point]"}
{"compound": "CCOc1ccc(C(=O)Nc2cc(NC(=O)c3ccc(OCC)c(Cl)c3)cc(C(=O)O)c2)cc1Cl", "activity, negative = inhibition": "inactive: 2%"}
{"compound": "O=P(O)(O)c1ccccc1OCCOCCOCCOCCOc1ccccc1P(=O)(O)O", "activity, negative = inhibition": "inactive: 15.9%"}
{"compound": "O=C(Nc1ccc(C2=NCCN2)cc1)c1ccc(Cl)c(C(=O)Nc2ccc(C3=NCCN3)cc2)c1", "Potency": "inconclusive [activator, single point]"}
{"compound": "Cc1cccc(NC(=O)CSc2nc3[nH]c(=O)cc(O)c3s2)c1", "activity, negative = inhibition": "inactive: 0%"}
{"compound": "Cc1c(CCC(=O)O)c(=O)oc2cc(OCc3cccc(Cl)c3)ccc12", "Potency": "inconclusive [falling, single point]"}
{"compound": "CCOC(=O)C1=C(N)OC2=C(C(=O)CCC2)C1c1ccco1", "note": "(stereo unspecified)", "Potency": "inconclusive [falling, single point]"}
{"compound": "Cc1nnc(N/N=C/c2cccc(OCc3ccc(Cl)c(Cl)c3)c2)n1N", "Potency": "inconclusive [falling, single point]"}
{"compound": "CC1(C)C2CCC1(C)C(OC(=O)CSc1nc(N)cc(=O)[nH]1)C2", "note": "(stereo unspecified)", "activity, negative = inhibition": "inactive: 1.25%"}
{"compound": "Nc1c2c(nc3ccccc13)CCCC2", "Potency": "inconclusive [falling, single point]"}
{"compound": "CCCCC(CC)COC(=O)C(C#N)=C(c1ccccc1)c1ccccc1", "note": "(stereo unspecified)", "Potency": "inconclusive [falling, single point]"}
{"compound": "Nc1nn(-c2ccccc2)c(N)c1N=Nc1ccccc1F", "Potency": "inconclusive [activator, single point]"}
{"compound": "Cc1cccc(NS(=O)(=O)c2ccc(C(=O)N3CCN(c4ccccc4O)CC3)cc2)c1C", "activity, negative = inhibition": "inactive: -0.617%"}
{"compound": "COc1cc(C(=O)O)ccc1Cl", "Potency": "inconclusive [falling, single point]"}
{"compound": "CCN(CC)CCCCN1c2ccccc2Sc2ccccc21", "activity, negative = inhibition": "inactive: -6.15%"}
{"compound": "Cc1cc(C)c2c(=O)n(CC(=O)NC3CCCC3)sc2n1", "Potency": "active: 6.01 µM"}
{"compound": "O=C(O)c1ccc2[nH]c3c(c2c1)CSCC3", "Potency": "inconclusive [activator, full curve, poor fit]"}
{"compound": "Cc1[nH]c2ccccc2c1N=Nc1cc(C(=O)O)cc(C(=O)O)c1", "Potency": "inconclusive [activator, partial curve, poor fit]"}
{"compound": "Nc1nc(=S)c2ncn(C3OC(CO)C(O)C3O)c2[nH]1", "note": "(stereo unspecified)", "Potency": "inconclusive [falling, single point]"}
{"compound": "COc1ccc(-n2nnnc2SCC(=O)Nc2ccccc2F)cc1", "activity, negative = inhibition": "inactive: 4.87%"}
{"compound": "O=C(COC(=O)CCC(=O)c1ccc(F)cc1)Nc1ccc2[nH]c(=O)[nH]c2c1", "Potency": "inconclusive [falling, single point]"}
{"compound": "CCN(CC)C(=S)SSC(=S)N(CC)CC", "Potency": "inconclusive [activator, single point]"}
{"compound": "Cc1ccc(Nc2ncccc2C(N)=O)cc1[N+](=O)[O-]", "activity, negative = inhibition": "inactive: -0.279%"}
{"compound": "O=C(CCCN1C(=O)/C(=C/c2cccs2)SC1=S)Nc1cccc(O)c1", "activity, negative = inhibition": "inactive: 0.034%"}
{"compound": "O=C(O)C1C2CCC(O2)C1C(=O)Nc1ccc(F)c(Cl)c1", "note": "(stereo unspecified)", "Potency": "inconclusive [falling, single point]"}
{"compound": "Cc1cccnc1NC(=O)CCNS(=O)(=O)c1ccc2c(c1)c(=O)n(C)c(=O)n2C", "Potency": "inconclusive [falling, single point]"}
{"compound": "N#C/C(=C\\c1ccc(N2CCOCC2)o1)c1ccccc1", "Potency": "inconclusive [falling, single point]"}
{"compound": "O=C(c1ccc(NC(=S)Nc2ccc(Cl)c(Cl)c2)cc1)N1CCCC1", "Potency": "active: 21.3 µM"}
{"compound": "O=C(Nc1cccc(N2C(=O)C=CC2=O)c1)c1cccs1", "Potency": "inconclusive [falling, single point]"}
{"compound": "O=C(O)c1ccc2c(c1)C(=O)/C(=C/c1ccccc1)C2=O", "Potency": "inconclusive [activator, partial curve]"}
{"compound": "O=C(c1cccn(Cc2ccc(Cl)c(Cl)c2)c1=O)N1CCOCC1", "Potency": "inconclusive [falling, partial curve]"}
{"compound": "Oc1cc(-n2cccn2)c(O)cc1-n1cccn1", "Potency": "active: 19 µM"}
{"compound": "Cc1ccc(C)c(C(=O)NCCN(C)C)c1", "activity, negative = inhibition": "inactive: -1.94%"}
{"compound": "O=C(CSc1nc(-c2ccccc2)cc(C(F)(F)F)n1)N1CCOCC1", "Potency": "inconclusive [falling, full curve, poor fit]"}
{"compound": "COC(=O)N/N=C/c1ccc(OC(=O)/C=C/c2ccco2)cc1", "Potency": "inconclusive [falling, single point]"}
{"compound": "O=C(O)c1cccc2c1C(=O)c1ccc(Cl)cc1S2(=O)=O", "Potency": "inconclusive [activator, partial curve]"}
{"compound": "COc1cc(/C=N/n2cnnc2)ccc1OCCOc1ccccc1", "activity, negative = inhibition": "inactive: -0.664%"}
{"compound": "CCCCCn1c(Sc2nc3ccccc3s2)nc2c1c(=O)[nH]c(=O)n2C", "activity, negative = inhibition": "inactive: 2.28%"}
{"compound": "COc1ccc(C(=O)COC(=O)c2ccccc2O)c(OC)c1", "Potency": "active: 6.75 µM"}
{"compound": "CCC(=O)Nc1ccc2oc(-c3cccc(C)c3)nc2c1", "Potency": "inconclusive [falling, single point]"}
{"compound": "O=C1c2ccccc2C(O)(Cc2ccccc2)N1CCCN1CCOCC1", "note": "(stereo unspecified)", "Potency": "inconclusive [falling, single point]"}
{"compound": "CC(C)C(=O)N(c1ccc2oc(=O)sc2c1)S(=O)(=O)c1cccs1", "activity, negative = inhibition": "inactive: 6.67%"}
{"compound": "Cc1ccc2nc(/C(C#N)=C\\c3ccc(Oc4ccc([N+](=O)[O-])cn4)cc3)[nH]c2c1", "activity, negative = inhibition": "inactive: 0.406%"}
{"compound": "COc1ccc(-n2c(Cc3cccn3C)nnc2SCC(=O)Nc2ccc(C)cc2C)cc1", "activity, negative = inhibition": "inactive: -3.81%"}
{"compound": "CC(C)NCCCCOc1cccc(Br)c1", "Potency": "inconclusive [falling, single point]"}
{"compound": "CC(=O)N1N=C(c2ccc(C)cc2)CC1c1ccco1", "note": "(stereo unspecified)", "activity, negative = inhibition": "inactive: -0.84%"}
{"compound": "Cc1ccc(N(CC(O)COCc2ccco2)S(=O)(=O)c2ccc(C)cc2)cc1", "note": "(stereo unspecified)", "Potency": "inconclusive [falling, single point]"}
{"compound": "Cc1ccc(OCCOc2ccc(Cl)cc2Cl)c([N+](=O)[O-])n1", "Potency": "inconclusive [falling, partial curve]"}
{"compound": "O=C(O)c1c(-c2ccccc2)c2oc3ccccc3c2[nH]c1=O", "activity, negative = inhibition": "inactive: 3.83%"}
{"compound": "c1ccc2nc(-c3nc4ccccc4[nH]3)ccc2c1", "activity, negative = inhibition": "inactive: -19.8%"}
{"compound": "CCSc1nc2c(c(=O)[nH]c(=O)n2C)n1CC(O)COc1ccccc1C", "note": "(stereo unspecified)", "activity, negative = inhibition": "inactive: -3.04%"}
{"compound": "COc1ccc(-c2csc(N(CCCN(C)C)C(=O)c3ccc(Br)cc3)n2)cc1", "Potency": "inconclusive [falling, single point]"}
{"compound": "O=C(Nc1nncs1)c1ccc(S(=O)(=O)c2ccccc2)cc1", "Potency": "inconclusive [falling, single point]"}
{"compound": "C=C(C)C(=O)Nc1cccc(C2=NOC3(C2)C[C@@H](C(N)=O)N(C(=O)c2ccc(OC)cc2)C3)c1", "note": "(stereo partly specified)", "Potency": "active: 1.9 µM"}
{"compound": "CS(=O)(=O)N(Cc1ccccc1)c1ccc(C(=O)NC2CCCCC2O)cc1", "note": "(stereo unspecified)", "Potency": "inconclusive [falling, single point]"}
{"compound": "COc1ccc(S(=O)(=O)Nc2ccccc2C(=O)N2CCOCC2)cc1Cl", "Potency": "inconclusive [falling, single point]"}
{"compound": "O=C(Nc1ccccc1)c1cnc(-c2ccccc2)nc1-c1ccccc1", "Potency": "inconclusive [activator, single point]"}
{"compound": "O=C(O)CSc1ncnc2sc3c(c12)CCC3", "activity, negative = inhibition": "inactive: 0.617%"}
{"compound": "O=C(NCc1ccccn1)C1CCC(CNS(=O)(=O)c2cccc3nsnc23)CC1", "note": "(stereo unspecified)", "Potency": "inconclusive [falling, single point]"}
{"compound": "CC(C)CN1CCC(=O)N([C@H](CSc2ccccc2)Cc2ccccc2)CC1", "activity, negative = inhibition": "inactive: -5.06%"}
{"compound": "COc1cc(/C=C/c2ccc3cccc([N+](=O)[O-])c3n2)ccc1OCC(=O)O", "Potency": "inconclusive [activator, partial curve]"}
{"compound": "Cc1ccc(S(=O)(=O)Nc2cc(C)c(O)cc2C)cc1", "activity, negative = inhibition": "inactive: -6.05%"}
{"compound": "Cc1ccc(CNc2ccc3c(c2)nc(C)n3C)cc1", "Potency": "inconclusive [falling, single point]"}
{"compound": "CC(C)(C)C(=O)[C@@H]1[C@@H]2C(=O)N(c3ccc4c(c3)OCCO4)C(=O)[C@@H]2C2c3ccccc3C=CN21", "note": "(stereo partly specified)", "Potency": "inconclusive [activator, partial curve]"}
{"compound": "CCCC(=O)N1CC(=O)Nc2ccc(Br)cc2C1c1ccc(F)cc1", "note": "(stereo unspecified)", "Potency": "inconclusive [falling, single point]"}
{"compound": "C/C(N)=C(/C#N)C(=O)CSc1nnc(Nc2cccc(C)c2)s1", "Potency": "inconclusive [falling, single point]"}
{"compound": "CCCCN(CCCC)CC(O)COc1ccccc1Br", "note": "(stereo unspecified)", "Potency": "inconclusive [falling, single point]"}
{"compound": "Cc1ccc(C2(C)NC(=O)N(CC(=O)Nc3ccc4[nH]c(=O)[nH]c4c3)C2=O)cc1", "note": "(stereo unspecified)", "Potency": "inconclusive [falling, partial curve, poor fit]"}
